Results as given in the supplement of paper PMC7826260.
Some of the results follow. The data describe in vitro nicking of single-stranded DNA by Rep domains (1 h at 37 °C, 3 µM enzyme); the outer parts of the 90-letter strands are left off. Numbers give uncut DNA relative to the enzyme-free pool, as log2; more negative means more cut, near 0 not cut, and no call is made. Shares of all reads are compared; values above 0 arise when much of the pool is cut.

Key:
Experiment in all cases: uncleaved DNA left, log2 of reads against the no-enzyme library (log2 ratio); higher = less cleavage (more negative = more Rep cleavage of the k-mer); sequences stand for … in CTCGTCCG…ACCGGAGA
[1] = system: T1, Rep nickase domain of Muscovy duck circovirus
T1 sequence (residues 1-111 of Rep, tag left off): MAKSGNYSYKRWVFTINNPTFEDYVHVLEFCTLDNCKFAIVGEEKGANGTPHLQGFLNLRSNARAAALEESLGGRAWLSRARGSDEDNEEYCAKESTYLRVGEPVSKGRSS
Procedure: (§1)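 A pool of 90-nt single-stranded DNAs with seven random bases just before the constant AC of the nick site (name = the seven bases) was cut by 3 µM recombinant His6-SUMO-tagged Rep nickase domain (300 nM DNA, 50 mM HEPES pH 8.0, 50 mM NaCl, 1 mM MnCl2, 1 h, 37 °C, three replicates). Uncut DNA was amplified and sequenced.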

[2] = system: T2, Rep nickase domain of banana bunchy top virus
T2 sequence (residues 1-94 of Rep, tag left off): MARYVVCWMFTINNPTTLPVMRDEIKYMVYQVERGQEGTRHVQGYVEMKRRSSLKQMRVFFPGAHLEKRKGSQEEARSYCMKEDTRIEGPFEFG
Procedure: as §1

[3] = system: T3, Rep nickase domain of cabbage leaf curl virus
T3 sequence (residues 1-116 of Rep, tag left off): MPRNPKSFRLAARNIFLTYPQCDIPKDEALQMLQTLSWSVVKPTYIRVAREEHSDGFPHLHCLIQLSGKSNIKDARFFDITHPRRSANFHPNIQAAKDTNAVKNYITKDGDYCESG
Procedure: as §1

[4] = system: T4, Rep nickase domain of chickpea chlorotic dwarf virus
T4 sequence (residues 1-124 of Rep, tag left off): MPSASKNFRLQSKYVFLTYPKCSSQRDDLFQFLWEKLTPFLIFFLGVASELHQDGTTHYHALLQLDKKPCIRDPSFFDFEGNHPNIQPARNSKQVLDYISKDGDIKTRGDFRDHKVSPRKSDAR
Procedure: as §1

[5] = system: T5, Rep nickase domain of faba bean necrotic yellows virus
T5 sequence (residues 1-98 of Rep, tag left off): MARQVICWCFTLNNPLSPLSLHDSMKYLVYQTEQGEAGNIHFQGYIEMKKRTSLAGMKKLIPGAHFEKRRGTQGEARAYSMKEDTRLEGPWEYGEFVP
Procedure: as §1

[6] = system: T6, Rep nickase domain of maize striate mosaic virus
T6 sequence (residues 1-117 of Rep, tag left off): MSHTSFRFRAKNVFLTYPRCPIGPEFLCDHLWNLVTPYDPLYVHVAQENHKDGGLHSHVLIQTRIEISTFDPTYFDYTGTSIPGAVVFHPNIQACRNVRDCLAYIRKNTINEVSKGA
Procedure: as §1

[7] = system: T7, Rep nickase domain of porcine circovirus 2
T7 sequence (residues 2-116 of Rep, tag left off): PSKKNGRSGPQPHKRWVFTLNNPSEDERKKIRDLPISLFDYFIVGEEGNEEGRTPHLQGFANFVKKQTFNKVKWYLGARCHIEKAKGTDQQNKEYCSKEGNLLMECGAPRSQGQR
Procedure: as §1

[8] = system: T8, Rep nickase domain of tomato golden mosaic virus
T8 sequence (residues 1-124 of Rep, tag left off): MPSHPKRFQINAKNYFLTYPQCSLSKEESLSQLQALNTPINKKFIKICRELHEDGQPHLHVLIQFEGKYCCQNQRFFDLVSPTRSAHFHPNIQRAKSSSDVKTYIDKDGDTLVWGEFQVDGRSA
Procedure: as §1

[9] = system: T9, Rep nickase domain of tomato yellow leaf curl virus
T9 sequence (residues 1-136 of Rep, tag left off): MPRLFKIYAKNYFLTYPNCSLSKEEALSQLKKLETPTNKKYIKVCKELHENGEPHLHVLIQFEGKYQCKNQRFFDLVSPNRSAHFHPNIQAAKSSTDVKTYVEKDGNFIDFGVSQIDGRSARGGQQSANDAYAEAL
Procedure: as §1

[10] = system: T10, Rep nickase domain of wheat dwarf virus
T10 sequence (residues 1-137 of Rep, tag left off): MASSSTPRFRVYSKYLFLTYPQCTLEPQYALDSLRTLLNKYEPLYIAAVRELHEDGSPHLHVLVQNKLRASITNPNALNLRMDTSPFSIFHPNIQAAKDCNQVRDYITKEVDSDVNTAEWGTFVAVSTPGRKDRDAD
Procedure: as §1

Row | Sequence | uncleaved DNA left (log2) [1] | uncleaved DNA left (log2) [2] | uncleaved DNA left (log2) [3] | uncleaved DNA left (log2) [4] | uncleaved DNA left (log2) [5] | uncleaved DNA left (log2) [6] | uncleaved DNA left (log2) [7] | uncleaved DNA left (log2) [8] | uncleaved DNA left (log2) [9] | uncleaved DNA left (log2) [10]
1 | AAATCTT | -4.17 | -1.2 | -4.56 | -3.61 | -0.251 | -3.18 | -4.53 | -4.12 | -0.702 | -4.15
2 | GGTGTAT | 0.199 | 0.184 | 0.797 | 1.5 | 0.0506 | 2.19 | 0.173 | 0.12 | 0.308 | 0.182
3 | GCTAGGG | -0.0211 | 0.0744 | -0.134 | 0.08 | 0.00888 | -0.538 | 0.153 | 0.0256 | 0.000702 | -0.0553
4 | TCGTTCT | -0.878 | -0.15 | -0.229 | -1.98 | -0.11 | -0.494 | -3.21 | -0.182 | 0.0433 | -0.181
5 | CCGAGTA | -0.0382 | -0.0224 | 0.429 | 0.561 | 0.0285 | 0.764 | -0.113 | -0.0687 | 0.0123 | 0.125
6 | TATCATG | -0.0323 | -0.0913 | -0.57 | -0.821 | -0.0457 | -1.11 | 0.025 | -0.0427 | -0.0315 | -0.145
7 | CGCATCG | -0.0463 | -0.116 | -0.785 | -0.13 | -0.105 | -1.16 | 0.0201 | -0.11 | -0.126 | -0.151
8 | GGCGTGA | 0.126 | -0.00228 | 0.297 | 0.924 | -0.0966 | 1.26 | 0.162 | 0.00834 | -0.00563 | 0.0108
9 | TTCGGGA | 0.0716 | -0.0438 | 0.402 | 0.51 | -0.183 | 0.66 | 0.0674 | 0.0232 | 0.032 | 0.00999
10 | GATTCCC | -1.17 | -0.198 | 0.251 | 0.304 | -0.508 | 0.996 | -2.92 | -0.0404 | 0.0595 | 0.125
11 | TGGCATA | 0.0261 | -0.00768 | 0.562 | 1.35 | -0.0916 | 1.68 | 0.0183 | -0.063 | -0.012 | 0.0595
12 | GCATTAC | -0.0974 | -0.0257 | -0.103 | -0.664 | 0.00337 | -0.441 | 0.0498 | -0.028 | 0.0214 | -0.0503
13 | GTGAGCG | -0.0416 | -0.0569 | -0.805 | -0.334 | 0.00654 | -0.994 | 0.0405 | -0.101 | -0.0427 | -0.154
14 | CTCTAAC | 0.0811 | 0.0473 | -0.281 | -1.73 | -0.00712 | -0.669 | 0.00964 | 0.016 | -0.0131 | -0.0192
15 | GCGAGCA | 0.147 | 0.105 | 0.112 | 0.534 | 0.0839 | 0.127 | -2 | 0.133 | 0.245 | 0.128
16 | GTTGGAA | 0.0241 | 0.132 | 0.297 | 0.824 | 0.0693 | 1.81 | 0.13 | 0.163 | 0.0466 | -0.0436
17 | AGTATTG | 0.0864 | 0.0842 | -0.0835 | 0.221 | -0.0363 | 0.0213 | 0.148 | 0.0603 | -0.052 | 0.000459
18 | GCAGCGG | 0.11 | -0.0513 | -0.134 | 0.129 | -0.0206 | -0.174 | 0.221 | 0.127 | -0.0159 | -0.093
19 | GTCGGGG | 0.06 | 0.13 | 0.649 | 0.984 | 0.0108 | 1.67 | 0.181 | 0.176 | 0.037 | 0.0239
20 | CCCACTT | 0.0482 | -0.0626 | -0.0526 | -2.25 | 0.0866 | -0.261 | -0.201 | 0.00407 | -0.128 | -0.00611
21 | ATGAATA | -0.0414 | -0.0192 | -0.143 | -1.45 | 0.0967 | -0.413 | -0.00203 | 0.0718 | -0.0428 | 0.0364
22 | CCTACTA | 0.00903 | 0.00618 | -0.511 | -2.65 | 0.0837 | -0.721 | -0.131 | -0.0137 | -0.00227 | -0.0221
23 | TGCTTCA | -0.0794 | 0.0397 | 0.0869 | -0.741 | 0.113 | -0.389 | -0.226 | -0.0209 | -0.0742 | -0.0738
24 | AATTCCC | -0.878 | -0.293 | -0.0929 | -0.466 | -0.149 | -0.421 | -1.59 | -0.0725 | 0.0734 | -0.00448
25 | CGCACTG | -0.158 | -0.107 | -0.0429 | 0.519 | -0.115 | 1.58 | 0.0239 | -0.249 | -0.0849 | 0.0887
26 | TTACACC | -0.111 | -0.192 | -0.0122 | -1.55 | -0.11 | -0.314 | -0.304 | -0.196 | -0.135 | -0.0712
27 | CTTCCAT | 0.0325 | 0.0391 | -0.0142 | -0.836 | -0.155 | -0.571 | -0.126 | -0.148 | -0.0178 | -0.0358
28 | TAACGGG | -0.0439 | -0.0296 | -0.45 | -0.678 | -0.0859 | -0.63 | 0.053 | 0.046 | -0.0517 | -0.105
29 | ACTTGGA | -0.056 | 0.0235 | -0.273 | -0.433 | 0.0348 | -0.912 | 0.0719 | 0.000847 | 0.0019 | -0.04
30 | CAGTTGA | -0.0792 | -0.15 | -0.0921 | -0.572 | -0.101 | -1.11 | -2.53 | 0.0428 | -0.167 | -0.123
